# Results from PubChem BioAssay AID2147 (National Center for Advancing Translational Sciences (NCATS), 2009).
# In all, about 230,000 compounds went through this assay and about 3,600 (1.6%) were called active. The shares of active, inactive and inconclusive entries below differ from those in the screen. Calls come from the whole dose curve; as a rule, active = well fitted inhibition curve with a large enough effect (not every such curve was filed as active); inconclusive = small, poorly fitted or top-dose-only effect, or another doubt; inactive = no such curve, though single readings can be large or run the other way. Potencies beside an inconclusive call are fits to weak or partial responses and may not hold up.
# Molecular target: Lysine-specific demethylase 4E (Homo sapiens) (UniProt B2RXH2)
# Chain of UniProt B2RXH2 (B2RXH2 whole entry, looked up, the tested form may be a part): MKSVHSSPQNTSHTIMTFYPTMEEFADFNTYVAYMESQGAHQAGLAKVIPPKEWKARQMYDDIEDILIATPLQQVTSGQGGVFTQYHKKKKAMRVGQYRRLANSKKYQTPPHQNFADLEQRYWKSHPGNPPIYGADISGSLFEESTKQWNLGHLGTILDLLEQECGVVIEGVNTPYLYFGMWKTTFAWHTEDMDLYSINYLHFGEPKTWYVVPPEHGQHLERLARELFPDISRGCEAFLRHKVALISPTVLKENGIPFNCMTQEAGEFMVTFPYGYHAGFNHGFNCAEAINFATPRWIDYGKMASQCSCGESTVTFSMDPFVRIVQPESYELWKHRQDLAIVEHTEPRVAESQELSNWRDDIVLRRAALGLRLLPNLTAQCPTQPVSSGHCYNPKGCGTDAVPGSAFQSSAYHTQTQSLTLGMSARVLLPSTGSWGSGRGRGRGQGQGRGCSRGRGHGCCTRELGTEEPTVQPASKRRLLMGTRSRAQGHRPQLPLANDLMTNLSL
# Experiment: qHTS Assay for Inhibitors of Human Jumonji Domain Containing 2E (JMJD2E)
# Conditions: JMJD2E catalytic domain, FDH-coupled NADH fluorescence (FDH is formaldehyde dehydrogenase); series mostly up to 57.1 µM; activity change, negative = inhibition: at the top concentration
# Note: nearly all actives have a fitted effect of over 50% in size.
# Potency is the fitted concentration of half-maximal effect; tags give direction and shape of the fitted curve.
# 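Throughout, for activity change, negative = inhibition: 0% = wells with enzyme and -100% = buffer wells without enzyme.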
SMILES,Potency,"activity change, negative = inhibition"
O=C(NC(=S)Nc1ccccc1N1CCOCC1)c1cccs1,"inconclusive: 25.1 µM [inhibitor, single point]",
CC(Oc1ccc(Cl)cc1Cl)C(=O)Nc1ccc(O)cc1 (stereo not drawn),"inconclusive: 39.8 µM [inhibitor, single point]",
CC(C)COC(=O)Nc1nnc(Cc2ccccc2)s1,"inconclusive: 25.1 µM [inhibitor, single point]",
O=C(CSc1n[nH]c(=O)n1Cc1ccco1)N1CCOCC1,,inactive: -1.45%
CC1(C)CC(=O)C(C=NCCN2CCN(C(=O)C34CC5CC(CC(C5)C3)C4)CC2)=C(O)C1,,inactive: -10.3%
C[C@@H](C(=O)Nc1ccc2ccccc2c1)[C@@H]1C[C@@]1(C)[C@@H](NS(=O)(=O)c1ccc(-c2ccccc2)cc1)c1ccccc1,"inconclusive: 25.1 µM [inhibitor, single point]",
Cc1cc(=O)[nH]c(N/N=C/c2ccc(C)o2)n1,"inconclusive: 35.5 µM [inhibitor, single point]",
O=C(c1cccs1)N(Cc1ccco1)Cc1cc2ccccc2[nH]c1=O,"inconclusive: 28.2 µM [inhibitor, single point]",
Cc1ccc(C2C(C#N)=C(N)SC(N)=C2C#N)o1,"inconclusive: 28.2 µM [inhibitor, partial curve]",
CCOc1ccc(-n2c(O)c(/C=N/Nc3nc(C)cc(C)n3)c3ccccc3c2=O)cc1,"inconclusive: 17.8 µM [inhibitor, partial curve]",
CCOP(=O)(c1ccccc1)c1nc(-c2ccccc2C)oc1NCc1ccccc1 (stereo not drawn),"inconclusive: 22.4 µM [inhibitor, partial curve]",
COC(=O)C1=C(CSc2nc3c(cc2C#N)CN(C)CC3)OC(N)=C(C#N)C1c1ccccc1F (stereo not drawn),"inconclusive: 10 µM [inhibitor, partial curve]",
N#Cc1ccc(COc2ccc(CCO)cc2-n2nc3ccccc3n2)cc1,"inconclusive: 31.6 µM [inhibitor, partial curve]",
CCOc1ccc(-c2cc(C(=O)NN)[nH]n2)cc1,,inactive: -2.06%
CC(=O)Nc1ccc(NC(=O)c2ccc(COc3ccc4c(C)cc(=O)oc4c3)cc2)cc1,"inconclusive: 31.6 µM [inhibitor, partial curve]",
Cc1ccc(NC(=S)NCC(C)CSc2ccc(Cl)cc2)cc1 (stereo not drawn),,inactive: 1.97%
COc1ccc(/C=C/C(=O)OCC(=O)NCc2cccs2)cc1OC,"inconclusive: 28.2 µM [inhibitor, single point]",
COC1(c2cc(-c3ccccc3)nc(N)n2)CCCCC1,"inconclusive: 28.2 µM [inhibitor, single point]",
CC(=O)c1cccc(CN2CCN(CC(C)C)C(CCO)C2)c1 (stereo not drawn),,inactive: 3.65%
COc1cccc([C@@H]2Oc3ccc(OC)cc3C(=O)[C@H]2OC(=O)N[C@H](C)C2CCCCC2)c1,"inconclusive: 25.1 µM [inhibitor, partial curve]",
c1ccc2c(-c3nc4ncccc4o3)cccc2c1,"inconclusive: 31.6 µM [inhibitor, partial curve]",
COc1ccc(C(=O)NNC(=O)c2cc3cc(OC)ccc3oc2=O)cc1,"inconclusive: 22.4 µM [inhibitor, partial curve]",

SMILES,Potency,"activity change, negative = inhibition"
COc1cc(/C=N\NC(=O)c2c(C)nc3cc(C)ccn23)ccc1O,"inconclusive: 25.1 µM [inhibitor, partial curve]",
O=C(CN1CCN(S(=O)(=O)c2cc(Cl)ccc2Cl)CC1)Nc1ccc2c(c1)OCCO2,,inactive: -0.956%
COc1cc2c(cc1OC)C(C)N(C(=O)c1cc3c(s1)-c1c(C)cccc1OC3)CC2 (stereo not drawn),"inconclusive: 35.5 µM [inhibitor, partial curve]",
O=c1/c(=C/c2ccco2)sc2n1CN(c1cccc(Br)c1)CN=2,"inconclusive: 39.8 µM [inhibitor, single point]",
c1ccc(N/N=C(\Cc2ncc[nH]2)c2ccccc2)cc1,"inconclusive: 31.6 µM [inhibitor, single point]",
CC1(C)CC(=O)C2=C(C1)NC(Nc1nc3ccccc3o1)=NC2c1ccccn1 (stereo not drawn),"inconclusive: 28.2 µM [inhibitor, single point]",
CCN1CC=C2C(C#N)=C(N)C(C#N)(C#N)C(CCc3ccccc3)C2C1 (stereo not drawn),"inconclusive: 28.2 µM [inhibitor, partial curve]",
N#Cc1cc(-c2cccc(Cl)c2)c[nH]c1=O,"inconclusive: 39.8 µM [inhibitor, single point]",
CSc1nnc(NC(=O)c2ccc(C)c(S(=O)(=O)N3CCOCC3)c2)s1,"inconclusive: 31.6 µM [inhibitor, partial curve]",
CCCCN(C)CCCNC(=O)CS(=O)Cc1nc(-c2ccc(OC)c(OC)c2)oc1C (stereo not drawn),"inconclusive: 28.2 µM [inhibitor, partial curve]",
CC1(C)Cc2nc3oc4c(SCC(N)=O)ncnc4c3cc2CO1,"inconclusive: 39.8 µM [inhibitor, single point]",
CCOc1cc(C2CC(=O)N3CN(C4CCCCC4)CSC3=C2C#N)ccc1O (stereo not drawn),"inconclusive: 17.8 µM [inhibitor, partial curve]",
CCOC(=O)C1CCN(c2c(N3CCN(Cc4ccccc4)CC3)c(=O)c2=O)CC1,,inactive: -1.15%
CC(C)CN1C(=O)c2ccccc2C1(O)Cc1ccccc1 (stereo not drawn),,inactive: 0.899%
COC(=O)c1nc(N)sc1-c1ccc(Cl)cc1,"inconclusive: 31.6 µM [inhibitor, partial curve]",
Cc1nc(Nc2ccccc2Cl)sc1C(=O)Nc1ccccc1,"inconclusive: 31.6 µM [inhibitor, single point]",
S=C(Nc1ccc2nc(-c3ccccn3)c(-c3ccccn3)nc2c1)N1CCOCC1,"inconclusive: 28.2 µM [inhibitor, partial curve]",
CC1Cc2ccccc2N1C(=S)NC(=O)c1ccco1 (stereo not drawn),,inactive: 3.66%
COC(=O)[C@@H]1C[C@H]2CC[C@H](O)C[C@H]2N1Cc1c(F)cccc1Cl,,inactive: 4.25%
COC(=O)CSC1=C(C#N)C(=O)NC2(CCCCC2)S1,"inconclusive: 39.8 µM [inhibitor, single point]",
CC(C)OC(=O)c1cccnc1SCc1cc(=O)n2ccccc2n1,"inconclusive: 12.6 µM [inhibitor, partial curve]",
